Results taken from US20250101135A1 (Hoffmann-La Roche, published 2025).
Positions count from the first letter of the chain named.

What was measured:
[1] = target: T1, human fibroblast activation protein (FAP) on cells (human, UniProt Q12884 1-760); assay: flow cytometry on FAP+ WM-266-4 cells
T1 construct: also called human FAP; huFAP

[2] = target: T2, human 4-1BB (CD137) on cells (human, UniProt Q07011 24-255); assay: flow cytometry on activated human PBMC, 4-1BB+ CD8+ T cells
T2 construct: whole, on cells; also called 4-1BB+CD8+; 4-1BB+CD4+

[3] = target: T1, human fibroblast activation protein …; assay: flow cytometry on FAP+ MV-3 cells
[4] = target: T2, human 4-1BB (CD137) on cells; assay: flow cytometry on activated human PBMC, 4-1BB+ CD4+ T cells
[5] = target: T1, human fibroblast activation protein …; assay: flow cytometry on NIH/3T3-huFAP clone 39 cells
[6] = target: T2, human 4-1BB (CD137) on cells; assay: flow cytometry on activated human PBMC, 4-1BB+ CD3+CD4+ T cells
[7] = target: T2, human 4-1BB (CD137) on cells; assay: flow cytometry on activated human PBMC, 4-1BB+ CD3+CD8+ T cells

B1: monovalent FAP(4B9)-targeted human 4-1BB ligand (71-248) containing Fc (kih) fusion molecule Construct 2.4 (Fc fusion)
chain 1: REGPELSPDDPAGLLDLRQGMFAQLVAQNVLLIDGPLSWYSDPGLAGVSLTGGLSYKEDTKELVVAKAGVYYVFFQLELRRVVAGEGSGSVSLALHLQPLRSAAGAAALALTVDLPPASSEARNSAFGFQGRLLHLSAGQRLGVHLHTEARARHAWQLTQGATVLGLFRVTPEIPAGLGGGGSGGGGSREGPELSPDDPAGLLDLRQGMFAQLVAQNVLLIDGPLSWYSDPGLAGVSLTGGLSYKEDTKELVVAKAGVYYVFFQLELRRVVAGEGSGSVSLALHLQPLRSAAGAAALALTVDLPPASSEARNSAFGFQGRLLHLSAGQRLGVHLHTEARARHAWQLTQGATVLGLFRVTPEIPAGLGGGGSGGGGSRTVAAPSVFIFPPSDRKLKSGTASVVCLLNNFYPREAKVQWKVDNALQSGNSQESVTEQDSKDSTYSLSSTLTLSKADYEKHKVYACEVTHQGLSSPVTKSFNRGE[no letters for human IgG1 Fc with changes]
chain 2: REGPELSPDDPAGLLDLRQGMFAQLVAQNVLLIDGPLSWYSDPGLAGVSLTGGLSYKEDTKELVVAKAGVYYVFFQLELRRVVAGEGSGSVSLALHLQPLRSAAGAAALALTVDLPPASSEARNSAFGFQGRLLHLSAGQRLGVHLHTEARARHAWQLTQGATVLGLFRVTPEIPAGLGGGGSGGGGSASTKGPSVFPLAPSSKSTSGGTAALGCLVEDYFPEPVTVSWNSGALTSGVHTFPAVLQSSGLYSLSSVVTVPSSSLGTQTYICNVNHKPSNTKVDEKVEPKSC
heavy: EVQLLESGGGLVQPGGSLRLSCAASGFTFSSYAMSWVRQAPGKGLEWVSAIIGSGASTYYADSVKGRFTISRDNSKNTLYLQMNSLRAEDTAVYYCAKGWFGGFNYWGQGTLVTVSSASTKGPSVFPLAPSSKSTSGGTAALGCLVKDYFPEPVTVSWNSGALTSGVHTFPAVLQSSGLYSLSSVVTVPSSSLGTQTYICNVNHKPSNTKVDKKVEPKSCDKTHTCPPCPAPEAAGGPSVFLFPPKPKDTLMISRTPEVTCVVVDVSHEDPEVKFNWYVDGVEVHNAKTKPREEQYNSTYRVVSVLTVLHQDWLNGKEYKCKVSNKALGAPIEKTISKAKGQPREPQVCTLPPSRDELTKNQVSLSCAVKGFYPSDIAVEWESNGQPENNYKTTPPVLDSDGSFFLVSKLTVDKSRWQQGNVFSCSVMHEALHNHYTQKSLSLSPGK
light: EIVLTQSPGTLSLSPGERATLSCRASQSVTSSYLAWYQQKPGQAPRLLINVGSRRATGIPDRFSGSGSGTDFTLTISRLEPEDFAVYYCQQGIMLPPTFGQGTKVEIKRTVAAPSVFIFPPSDEQLKSGTASVVCLLNNFYPREAKVQWKVDNALQSGNSQESVTEQDSKDSTYSLSSTLTLSKADYEKHKVYACEVTHQGLSSPVTKSFNRGEC
notes: crossed CH1-CL with charged residues
- EC50 [1]: 0.59 nM
- EC50 [2]: 0.3 nM
- EC50 [3]: 0.83 nM
- EC50 [4]: 0.38 nM

B2: monovalent FAP(4B9)-targeted human 4-1BB ligand (71-248) containing Fc (kih) fusion molecule Construct 2.5 (Fc fusion)
chain 1: REGPELSPDDPAGLLDLRQGMFAQLVAQNVLLIDGPLSWYSDPGLAGVSLTGGLSYKEDTKELVVAKAGVYYVFFQLELRRVVAGEGSGSVSLALHLQPLRSAAGAAALALTVDLPPASSEARNSAFGFQGRLLHLSAGQRLGVHLHTEARARHAWQLTQGATVLGLFRVTPEIPAGLGGGGSGGGGSREGPELSPDDPAGLLDLRQGMFAQLVAQNVLLIDGPLSWYSDPGLAGVSLTGGLSYKEDTKELVVAKAGVYYVFFQLELRRVVAGEGSGSVSLALHLQPLRSAAGAAALALTVDLPPASSEARNSAFGFQGRLLHLSAGQRLGVHLHTEARARHAWQLTQGATVLGLFRVTPEIPAGLGGGGSGGGGSRTVAAPSVFIFPPSDEQLKSGTASVVCLLNNFYPREAKVQWKVDNALQSGNSQESVTEQDSKDSTYSLSSTLTLSKADYEKHKVYACEVTHQGLSSPVTKSFNRGE[no letters for human IgG1 Fc with changes]
chain 2: B1 chain 2 with E218K, E284K
heavy: B1 heavy
light: B1 light
notes: crossed CH1-CL without charged residues
- EC50 [1]: 1.2 nM
- EC50 [2]: 0.35 nM
- EC50 [3]: 1.66 nM
- EC50 [4]: 0.68 nM

B3: monovalent FAP(28H1)-targeted human 4-1BB ligand (71-254) trimer-containing Fc (kih) fusion molecule Construct 1.3 (Fc fusion)
chain 1: [no letters for about 200 residues]GGGGSGGGGSREGPELSPDDPAGLLDLRQGMFAQLVAQNVLLIDGPLSWYSDPGLAGVSLTGGLSYKEDTKELVVAKAGVYYVFFQLELRRVVAGEGSGSVSLALHLQPLRSAAGAAALALTVDLPPASSEARNSAFGFQGRLLHLSAGQRLGVHLHTEARARHAWQLTQGATVLGLFRVTPEIPAGLPSPRSEGGGGSGGGGSASTKGPSVFPLAPSSKSTSGGTAALGCLVEDYFPEPVTVSWNSGALTSGVHTFPAVLQSSGLYSLSSVVTVPSSSLGTQTYICNVNHKPSNTKVDEKV[no letters for human IgG1 Fc with changes]
chain 2: [no letters for about 200 residues][no letters for about 120 residues]
heavy: EVQLLESGGGLVQPGGSLRLSCAASGFTFSSHAMSWVRQAPGKGLEWVSAIWASGEQYYADSVKGRFTISRDNSKNTLYLQMNSLRAEDTAVYYCAKGWLGNFDYWGQGTLVTVSSASVAAPSVFIFPPSDEQLKSGTASVVCLLNNFYPREAKVQWKVDNALQSGNSQESVTEQDSKDSTYSLSSTLTLSKADYEKHKVYACEVTHQGLSSPVTKSFNRGECDKTHTCPPCPAPEAAGGPSVFLFPPKPKDTLMISRTPEVTCVVVDVSHEDPEVKFNWYVDGVEVHNAKTKPREEQYNSTYRVVSVLTVLHQDWLNGKEYKCKVSNKALGAPIEKTISKAKGQPREPQVCTLPPSRDELTKNQVSLSCAVKGFYPSDIAVEWESNGQPENNYKTTPPVLDSDGSFFLVSKLTVDKSRWQQGNVFSCSVMHEALHNHYTQKSLSLSPGK
light: EIVLTQSPGTLSLSPGERATLSCRASQSVSRSYLAWYQQKPGQAPRLLIIGASTRATGIPDRFSGSGSGTDFTLTISRLEPEDFAVYYCQQGQVIPPTFGQGTKVEIKSSASTKGPSVFPLAPSSKSTSGGTAALGCLVKDYFPEPVTVSWNSGALTSGVHTFPAVLQSSGLYSLSSVVTVPSSSLGTQTYICNVNHKPSNTKVDKKVEPKSC
notes: CH1-CL crossover in the anti-FAP Fab, charged residues on the 4-1BBL chains
- EC50 [5]: 15 nM
- EC50 [6]: 2.82 nM
- EC50 [7]: 0.07 nM

B4: bivalent FAP(4B9)-targeted human 4-1BB ligand (71-254) containing Fc (kih) fusion molecule Construct 2.3 (Fc fusion)
heavy 1: EVQLLESGGGLVQPGGSLRLSCAASGFTFSSYAMSWVRQAPGKGLEWVSAIIGSGASTYYADSVKGRFTISRDNSKNTLYLQMNSLRAEDTAVYYCAKGWFGGFNYWGQGTLVTVSSASTKGPSVFPLAPSSKSTSGGTAALGCLVKDYFPEPVTVSWNSGALTSGVHTFPAVLQSSGLYSLSSVVTVPSSSLGTQTYICNVNHKPSNTKVDKKVEPKSCDKTHTCPPCPAPEAAGGPSVFLFPPKPKDTLMISRTPEVTCVVVDVSHEDPEVKFNWYVDGVEVHNAKTKPREEQYNSTYRVVSVLTVLHQDWLNGKEYKCKVSNKALGAPIEKTISKAKGQPREPQVCTLPPSRDELTKNQVSLSCAVKGFYPSDIAVEWESNGQPENNYKTTPPVLDSDGSFFLVSKLTVDKSRWQQGNVFSCSVMHEALHNHYTQKSLSLSPGGGGGSGGGGSREGPELSPDDPAGLLDLRQGMFAQLVAQNVLLIDGPLSWYSDPGLAGVSLTGGLSYKEDTKELVVAKAGVYYVFFQLELRRVVAGEGSGSVSLALHLQPLRSAAGAAALALTVDLPPASSEARNSAFGFQGRLLHLSAGQRLGVHLHTEARARHAWQLTQGATVLGLFRVTPEIPAGLPSPRSEGGGGSGGGGSREGPELSPDDPAGLLDLRQGMFAQLVAQNVLLIDGPLSWYSDPGLAGVSLTGGLSYKEDTKELVVAKAGVYYVFFQLELRRVVAGEGSGSVSLALHLQPLRSAAGAAALALTVDLPPASSEARNSAFGFQGRLLHLSAGQRLGVHLHTEARARHAWQLTQGATVLGLFRVTPEIPAGLPSPRSE
heavy 2: EVQLLESGGGLVQPGGSLRLSCAASGFTFSSYAMSWVRQAPGKGLEWVSAIIGSGASTYYADSVKGRFTISRDNSKNTLYLQMNSLRAEDTAVYYCAKGWFGGFNYWGQGTLVTVSSASTKGPSVFPLAPSSKSTSGGTAALGCLVKDYFPEPVTVSWNSGALTSGVHTFPAVLQSSGLYSLSSVVTVPSSSLGTQTYICNVNHKPSNTKVDKKV[no letters for human IgG1 Fc with changes]GGGGSGGGGSREGPELSPDDPAGLLDLRQGMFAQLVAQNVLLIDGPLSWYSDPGLAGVSLTGGLSYKEDTKELVVAKAGVYYVFFQLELRRVVAGEGSGSVSLALHLQPLRSAAGAAALALTVDLPPASSEARNSAFGFQGRLLHLSAGQRLGVHLHTEARARHAWQLTQGATVLGLFRVTPEIPAGLPSPRSE
light: B1 light
- EC50 [1]: 0.42 nM
- EC50 [2]: 0.44 nM
- EC50 [3]: 0.53 nM
- EC50 [4]: 0.3 nM
